The record followed here is publication PMC4336329 (PLoS ONE, 2015).

The whole screen tested about 310,000 compounds, of which about 14,000 (4.5%) showed an effect of 50% or more. The effect is printed as a negative number. The list shows a part of the results.
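Further: peak tail current of the secondary pulse compared with the same well before compound.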

human ether-à-go-go-related gene (hERG) potassium channel, sequence (Q12809 whole entry, looked up): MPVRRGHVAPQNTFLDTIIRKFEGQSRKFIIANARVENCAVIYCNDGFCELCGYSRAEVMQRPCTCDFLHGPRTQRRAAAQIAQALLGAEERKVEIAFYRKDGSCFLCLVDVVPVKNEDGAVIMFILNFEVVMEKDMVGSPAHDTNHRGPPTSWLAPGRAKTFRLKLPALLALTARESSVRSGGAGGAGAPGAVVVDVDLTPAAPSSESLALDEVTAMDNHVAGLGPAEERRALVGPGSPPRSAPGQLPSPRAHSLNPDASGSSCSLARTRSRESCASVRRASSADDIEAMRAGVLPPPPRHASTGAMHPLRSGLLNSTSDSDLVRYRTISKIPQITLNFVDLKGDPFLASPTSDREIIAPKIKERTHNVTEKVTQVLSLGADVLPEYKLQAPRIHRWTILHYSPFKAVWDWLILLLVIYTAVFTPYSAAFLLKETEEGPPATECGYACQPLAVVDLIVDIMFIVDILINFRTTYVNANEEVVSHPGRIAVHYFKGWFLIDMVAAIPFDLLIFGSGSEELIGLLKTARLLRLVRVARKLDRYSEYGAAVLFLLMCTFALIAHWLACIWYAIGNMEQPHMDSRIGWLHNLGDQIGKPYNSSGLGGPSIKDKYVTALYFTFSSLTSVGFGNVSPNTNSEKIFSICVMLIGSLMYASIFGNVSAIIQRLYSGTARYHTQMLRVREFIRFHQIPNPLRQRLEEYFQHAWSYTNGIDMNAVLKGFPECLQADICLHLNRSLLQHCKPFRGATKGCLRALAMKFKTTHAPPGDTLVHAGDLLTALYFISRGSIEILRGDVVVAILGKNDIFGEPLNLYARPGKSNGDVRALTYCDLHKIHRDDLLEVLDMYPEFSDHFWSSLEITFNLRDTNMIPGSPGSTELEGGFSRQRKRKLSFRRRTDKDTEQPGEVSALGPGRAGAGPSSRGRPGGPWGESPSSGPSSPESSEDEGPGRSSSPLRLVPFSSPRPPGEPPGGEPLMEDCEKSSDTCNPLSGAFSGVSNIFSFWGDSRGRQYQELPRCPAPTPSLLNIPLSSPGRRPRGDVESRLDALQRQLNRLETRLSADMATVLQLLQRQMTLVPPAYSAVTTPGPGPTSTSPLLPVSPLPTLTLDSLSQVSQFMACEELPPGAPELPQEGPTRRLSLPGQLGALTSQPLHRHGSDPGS

This assay has as its target human ether-à-go-go-related gene (hERG) potassium channel (human, UniProt Q12809). The experiment in a line: primary screen, population patch clamp on CHO cells stably expressing hERG.
As for `CC(C)CNC(=O)c1cc(-c2ccc(Cl)c(Cl)c2)on1`, the “hERG current change (%, negative = inhibition) at 10uM” value is listed as 3.96%.
In the case of `CSCC(O)Cn1ncc2ccccc2c1=O` (centres unmarked), the “hERG current change (%, negative = inhibition) at 10uM” value is 2.43%.
Take `CCOc1ccccc1NC(=O)CN1C(=O)COc2ccc(S(=O)(=O)N3CCOCC3)cc21`: the “hERG current change (%, negative = inhibition) at 10uM” value was -1.44%.
As to `COc1ccccc1-n1cnc2cc(NCc3ccccc3O)ccc21`, the “hERG current change (%, negative = inhibition) at 10uM” value was determined as 7.77%.
In the case of `CCOC(=O)c1c(N/N=C/c2ccncc2)n[nH]c1C`, the “hERG current change (%, negative = inhibition) at 10uM” value is recorded as -10.9%.
Regarding `CC(C)c1ccc(Nc2nnc(SCC(=O)Nc3ncc(S(=O)(=O)c4ccc([N+](=O)[O-])cc4)s3)s2)cc1`, the “hERG current change (%, negative = inhibition) at 10uM” value amounted to 13.8%.
The value for `CCCCN(C(=O)c1ccc2c(c1)OCO2)c1ccccc1` was -6.27%.
Under `O=C(CSCCO)N1CCc2ccccc21` stands -25.8%.
Consider `Cc1cc(NCCCN(C)C)n2nc(-c3cccs3)cc2n1`, for which the “hERG current change (%, negative = inhibition) at 10uM” value is listed as -23.6%.
Regarding `COc1cc(C(C)=O)ccc1OCC(O)CN1CCN(c2ccccc2)CC1` (centres unmarked), the “hERG current change (%, negative = inhibition) at 10uM” value is listed as -31.5%.
For the molecule `CCn1c(CC(=O)Nc2ccc(C)cc2)nnc1SCC(=O)N1CCN(c2ccccc2)CC1`, the “hERG current change (%, negative = inhibition) at 10uM” value is listed as -20.8%.
With `OCCC1CN(Cc2ccc(-n3cccn3)cc2)CCN1Cc1ccccc1` (centres unmarked), the “hERG current change (%, negative = inhibition) at 10uM” value is reported as -59.8%.
As to `O=C(COC(=O)COc1ccc(Cl)cc1)NC1CCS(=O)(=O)C1` (centres unmarked), the “hERG current change (%, negative = inhibition) at 10uM” value is 4.54%.
With `COc1ccc(N2CCN(S(=O)(=O)c3ccc4c(c3)N(C(C)=O)CCO4)CC2)cc1`, the “hERG current change (%, negative = inhibition) at 10uM” value was -18.4%.
`COc1ccc(O)c(/C=N/NS(=O)(=O)c2ccc(C)cc2)c1`: the “hERG current change (%, negative = inhibition) at 10uM” value is listed as 11.9%.
As for `Cc1ccc2c(c1)N(C(=O)CCC(=O)NCCCN1CCOCC1)CCO2`, the “hERG current change (%, negative = inhibition) at 10uM” value is listed as 5.17%.
Turning to `COc1ccc(Cc2nc3ccc(C(=O)NC(C)c4cn(C)nc4C)cc3o2)cc1` (centres unmarked), the “hERG current change (%, negative = inhibition) at 10uM” value came to 6.22%.
With `COc1ccc(C2CC(c3ccc(Cl)cc3Cl)n3nc(N)nc3N2)cc1` (centres unmarked), the “hERG current change (%, negative = inhibition) at 10uM” value worked out at 0.473%.
With `CCN1CC(CN(C)Cc2nc(Cc3ccccc3)no2)CC1=O` (centres unmarked), the “hERG current change (%, negative = inhibition) at 10uM” value is 21.7%.
The value for `Cn1c(SCC(=O)Nc2ccc(N3CCOCC3)cc2)nnc1C(F)(F)F` was 8.41%; that for `Cn1ncc(Cl)c1C(=O)N1CCOCC1` was 16.2%; that for `O=C(CNC(=O)c1cccs1)NCC(=O)OCC(=O)c1ccc([N+](=O)[O-])cc1` was -1.59%.
The value for `Cc1cccc(-n2ccnc2SCC(=O)c2c(N)n(C3CC3)c(=O)[nH]c2=O)c1C` was -0.143%; that for `CCOC(=O)c1c(C)n(C)c2ccc(OC)c(NC(=O)CN3CCCCC3)c12` was -7.45%; that for `O=C1c2ccccc2C(=O)N1c1cc([N+](=O)[O-])ccn1` was 14%.
For the molecule `Cc1ccc2c(c1)cc(CN(Cc1ccc3c(c1)OCO3)S(=O)(=O)c1ccccc1)c1nnnn12`, the “hERG current change (%, negative = inhibition) at 10uM” value is recorded as 28.5%.
On to `CC1Cc2cc(/C=C3/SC(N4CCC(C(N)=O)CC4)=NC3=O)ccc2O1` (centres unmarked), for which the “hERG current change (%, negative = inhibition) at 10uM” value is reported as -5.54%.
For `Cc1ccc(CNC(=O)CCNS(=O)(=O)c2ccc(Br)s2)cc1`, the “hERG current change (%, negative = inhibition) at 10uM” value is recorded as 0.301%.
Turning to `O=c1nc2c(-c3cccc(Br)c3)n[nH]n2c2ccccc12`, the “hERG current change (%, negative = inhibition) at 10uM” value is given as -4.4%.
For the molecule `Cn1cnc2nc3n(c2c1=O)CCC3`, the “hERG current change (%, negative = inhibition) at 10uM” value worked out at 6.85%.
Take `CC(=O)c1c(N2CCN(C(=O)c3ccco3)CC2)nc(=S)n(-c2ccccc2)c1C`: the “hERG current change (%, negative = inhibition) at 10uM” value was -1.95%.
`COC(=O)c1ccc(OC(=O)c2cccnc2)cc1`: the “hERG current change (%, negative = inhibition) at 10uM” value worked out at 27.3%.
Under `CCCCNC(=O)[C@@H]1CC=C[C@@H]2CCN(C3CC3)C(=O)[C@@H]21` stands 13.8%; under `CC1CC(C)CN(C(=O)Nc2ccc(Br)cc2)C1` (centres unmarked), 6.89%; under `COc1ccc(C(=O)OCC(=O)NCc2ccccc2)c(OC)c1OC`, 2.68%.
As for `CSc1ccc(CN2CCC(n3nccc3NC(=O)c3ccccc3C)CC2)cc1`, the “hERG current change (%, negative = inhibition) at 10uM” value is given as -75%.
Under `O=C(Nc1cccc(F)c1)Nc1c[nH]c(=O)[nH]c1=O` stands 14.8%; under `COc1ccc(S(=O)(=O)N(c2onc(C)c2Cl)S(=O)(=O)c2ccc(OC)c(OC)c2)cc1OC`, 10.3%; under `COc1cccc(C(=O)NC2CC3CCCC(C2)N3CC(=O)Nc2ccccc2C(F)(F)F)c1` (centres unmarked), 15.8%.
The value for `CN1CCN(S(=O)(=O)c2cccc(C(=O)N3CCc4ccccc43)c2)CC1` was -27.1%; that for `O=C(CC1C(=O)NCCN1Cc1ccc(F)cc1)NCCN1CCCc2ccccc21` (centres unmarked) was -66.1%.
On to `Nc1ccc(C#Cc2c(-c3ccsc3)oc3ccc(N4CCOCC4)cc23)cc1`, for which the “hERG current change (%, negative = inhibition) at 10uM” value is recorded as 5.98%.
Under `Cc1c(C(=O)N2CC[C@@H](N3CCC(O)CC3)[C@H](O)C2)[nH]c2ccc(Cl)cc12` stands -14.9%; under `O=C(NCc1ccccc1OC(F)(F)F)C1CCC(=O)N(CCc2ccccn2)C1` (centres unmarked), 13.8%.
On to `O=S(=O)(NCCCN1CCN(c2ccccc2F)CC1)c1cccc2cccnc12`, for which the “hERG current change (%, negative = inhibition) at 10uM” value was -37.6%.
For the molecule `CCCc1[nH]n(-c2nc3ccccc3s2)c(=O)c1C=NCCCN(CC)CC`, the “hERG current change (%, negative = inhibition) at 10uM” value was -75.9%.
`CCC(Oc1ccccc1)C(=O)NC1CCCCCC1` (centres unmarked): the “hERG current change (%, negative = inhibition) at 10uM” value was -0.406%.
For the molecule `Cc1ccc(C)c(NC(=O)Cn2nnc(C(=O)NCc3cccs3)c2N)c1`, the “hERG current change (%, negative = inhibition) at 10uM” value is 10.4%.
On to `COc1ccc2c(=O)cc(-c3ccccc3)n(C)c2c1`, for which the “hERG current change (%, negative = inhibition) at 10uM” value is given as -26.3%.
In the case of `C=CCn1c(C)cc(C2=NNC(=Nc3ccc(C)cc3)SC2)c1C`, the “hERG current change (%, negative = inhibition) at 10uM” value is 8.86%.
Take `C=CCn1c(SCC(=O)N2CCCCC2)nc(O)cc1=O`: the “hERG current change (%, negative = inhibition) at 10uM” value was 3.13%.
Under `COC(=O)c1cccc(Oc2nc3c(c(=O)n(C)c(=O)n3C)n2C(C)C)c1` stands 10.3%; under `COc1ccccc1OCCNC(=O)C(CCSC)NC(=O)c1ccccc1Cl` (centres unmarked), -2.15%.
The value for `COc1ccccc1-n1c(CNC(=O)c2ccco2)nnc1SCC(=O)Nc1ccc(F)cc1` was -16.4%.
Under `O=S(=O)(c1ccc(Br)s1)N1CCN(CCc2ccccc2)CC1` stands 26%.
As for `CCc1nnc(NC(=O)C2CC(=O)N(C3CCCCC3)C2)s1` (centres unmarked), the “hERG current change (%, negative = inhibition) at 10uM” value came out at 19.8%.
